Experimental data taken from publication PMC12040169 (PLOS Biology, 2025).
This is one part of the list.

What follows are compounds tested on T1, C. trachomatis L2/434/Bu expressing GFP (CTL2-GFP). Conditions: total inclusion area; 28.5 h, 10 µM; inhibitor.
T1 construct: L2/434/Bu GFP intracellular growth in HeLa cells
Design: species or system HeLa; C. trachomatis total inclusion area by high-content imaging, normalised to DMSO
Outline: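 Bulk GFP and resorufin signals were read first. Wells were then fixed, stained with Hoechst and imaged to detect GFP inclusions and host nuclei. MICs followed the previously described calculation.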

| SMILES | % of control remaining |
| --- | --- |
| O=C(COc1ccccc1)c1cn(CC(=O)N2CCc3ccccc32)c2ccccc12 [CBK267659] | 113.26 |
| Cc1ccc2[nH]c3c(c2c1)CCNC31CCN(C(=O)[C@@H]2CCCC[C@@H]2C(=O)O)CC1 [CBK047222] | 72.7188 |
| OC(COCc1ccccc1)CN1CCN(Cc2ccccc2)CC1 (stereo not shown) [CBK278297C] | 92.7241 |
| COc1ccc(C(=O)N2CCC3(CCN(C(=O)CC4CCCCC4)C3)C2)cc1OC (stereo not shown) [CBK131770] | 82.4953 |
| [O-][S+](c1ccc(Cl)c(Cl)c1)c1cc2c(N3CCCNCC3)nccc2s1 (stereo not shown) [CBK038304C] | 75.3523 |
| CCN(CC)c1c(C)nc2ccc(C(=O)NCCc3ccccn3)cn12 [CBK145951] | 92.4611 |
| Cc1nc(C2(O)CCCN(Cc3cccc(F)c3)CC2)sc1CCOc1ccccc1 (stereo not shown) [CBK286024] | 94.84 |
| O=C(O)CCSc1nc2ccccc2nc1C(F)(F)F [CBK107866] | 87.3322 |
| C=CCn1c(Cc2csc(NC(=O)c3ccc([N+](=O)[O-])cc3)n2)n[nH]c1=S [CBK295290] | 100.575 |
| Cc1cc(C)cc(OCc2nnc(SCC(=O)Nc3c(F)cc(F)cc3Br)n2C)c1 [CBK268604] | 93.4598 |
| CCOC(=O)N(C)c1c(CC)nc2ccc(C(=O)N(C)CCCN(C)C)cn12 [CBK146478] | 98.6808 |
| Oc1nsnc1-c1ccccc1 [CBK026014] | 98.3478 |
| CN1CC=C(/C=C/c2ccc(Sc3ncccn3)o2)CC1 [CBK283797] | 73.9186 |
| c1ccc(-c2nn3c(CN4CCOCC4)nnc3c3ccccc23)cc1 [CBK269779] | 126.611 |
| CC(C)NC(=O)[C@@H]1CN(C)C[C@]12CCc1ccccc1C2=O [CBK284764] | 64.3661 |
| O=C(c1sccc1NS(=O)(=O)c1ccc(Oc2ccccc2)cc1)N1CCOCC1 [CBK050423] | 87.7441 |
| CCN(Cc1ccncc1)C(=O)NCCCSC [CBK155125] | 92.5028 |
| O=C(NCCCc1ccccn1)c1cnn(-c2ccc(F)cc2)c1 [CBK283287] | 101.486 |
| Cc1cc(C)n(C(CC(=O)c2ccccc2)C(=O)O)n1 (stereo not shown) [CBK287209] | 99.4581 |
| Cc1nc(-c2ccccc2)sc1CNC(=O)C1CC1C (stereo not shown) [CBK092369] | 114.085 |
| COc1ccc(-c2nc3ccc(C)cc3c(C(=O)NCCc3ccc(S(N)(=O)=O)cc3)c2C)cc1 [CBK267753] | 93.4539 |
| Cc1nc2c(OCc3ccc(F)c(F)c3)cccn2c1N(C)CC1CC1 [CBK147276] | 86.7666 |
| COc1cc(C=O)ccc1OCC(=O)Nc1ccc(C)c(Cl)c1 [CBK266190] | 108.58 |
| COc1cccc(C(=O)N2CCC(NC(=O)c3csc(-c4ccccc4)n3)CC2)c1 [CBK155030] | 99.447 |
| Cc1cccc(C(=O)N2CCN(S(=O)(=O)c3sc(C(=O)O)c(C)c3C(=O)O)CC2)c1 [CBK297124] | 90.9459 |
| COCCCN1C(=O)C(O)=C(C(=O)c2ccc(C)o2)C1c1ccc(Br)cc1 (stereo not shown) [CBK264876] | 111.908 |
| CCCS(=O)(=O)Nc1cccc(-c2nnn[nH]2)c1 [CBK155417] | 81.9167 |

| SMILES | % of control remaining |
| --- | --- |
| Cc1cc2[nH]cc(C(=O)N3CCCC3c3ccco3)c(=O)n2n1 (stereo not shown) [CBK307390] | 82.2277 |
| Cc1ccc(S(=O)(=O)N(C)C)cc1NC(=O)C12CCC(C)(C(=O)C1)C2(C)C (stereo not shown) [CBK266551] | 93.7413 |
| CC(=O)N1CCC(c2nc(C3CCCC3)no2)C1 (stereo not shown) [CBK285452] | 99.0037 |
| O=C(CN1CCN(S(=O)(=O)N2CCCCCC2)CC1)Nc1cc(Cl)ccc1Cl [CBK269587] | 98.2244 |
| COCCN(CCOC)Cc1c(C)nc2c(C)c(C)ccc2c1O [CBK265031] | 113.955 |
| Cc1cc2c(cc3c(=O)n(CC(=O)N4CCCC4)nc(C)n32)s1 [CBK284065] | 103.989 |
| CNC(=O)c1ccc(-c2ccc3[nH]ccc3c2)nc1N(C)C [CBK106146] | 87.7525 |
| Sc1nnc(-c2ccncc2)n1/N=C/c1cccnc1 [CBK265336] | 84.3132 |
| Cc1cc2occ(CC(=O)NC3CCCN(C)C3)c2cc1C (stereo not shown) [CBK282611] | 110.727 |
| N[C@@H](Cc1c[nH]c2ccccc12)C(=O)N1CC[C@H]2NC(=O)[C@@H](Cc3ccccc3)NC(=O)C3(C/C=C/C[C@@H]2C1)CCOCC3 [CBK292202] | 114.864 |
| Cn1nnc(NC(=O)COc2ccc(C3CCCCC3)cc2)n1 [CBK266442] | 121.426 |
| CS(=O)(=O)N(Cc1ccccc1)c1ccc(C(=O)Nc2ccccc2C(=O)O)cc1 [CBK264117] | 98.5118 |
| COc1cc(CNC(=O)NC(=O)C2CCN(CCc3cccc(O)c3)CC2)cc(OC)c1OC [CBK034857] | 98.5281 |
| Cc1csc(CC(C)n2cc(Cl)cn2)n1 (stereo not shown) [CBK304797] | 40.2177 |
| Cc1nn(C)cc1-c1cncn1CCCC(C)(C)CO [CBK281492] | 93.7756 |
| O=C(Nc1cccc(C(F)(F)F)c1)c1nc[nH]n1 [CBK027341] | 109.332 |
| CC(=O)c1c(C)[n+]([O-])c2cc(Cl)c(Cl)cc2[n+]1[O-] [CBK265017] | 103.689 |
| S=C(NCCc1ccc(Cl)cc1)NCc1ccco1 [CBK266812] | 106.18 |
| O=C(c1ccccc1NS(=O)(=O)c1ccc(Br)cc1)N1CCOCC1 [CBK043340] | 114.464 |
| Cc1ccc2cc(CN(Cc3ccco3)C(=O)c3cccs3)c(O)nc2c1 [CBK269274] | 110.767 |
| O=C(Nc1cccc(-c2nc3ccccc3s2)c1)c1ccc(S(=O)(=O)N2CCCC2)cc1 [CBK261787] | 101.907 |
| CC(C)(C)C1CCc2onc(C(=O)NCCn3ccnc3)c2C1 (stereo not shown) [CBK281581] | 83.2098 |
| CC(NS(=O)(=O)c1cc(Cl)ccc1Cl)C(=O)Nc1ccccc1 (stereo not shown) [CBK267871] | 95.5009 |
| C=C(C)CN1CCN(Cc2cnn(C3CCCCC3)c2)CC1 [CBK282828] | 86.2537 |
| CCCCc1ccc(-c2cc3ncccc3nc2N)cc1 [CBK081198] | 89.8862 |
| O=C(O)CCc1c(-c2ccccc2)cc2ccccn12 [CBK266308] | 96.7595 |
| Cc1nn(CC(=O)NC2CCCC2)c(=O)c2cc3sccc3n12 [CBK284023] | 60.3624 |

| SMILES | % of control remaining |
| --- | --- |
| Cc1cnccc1-c1c[nH]nc1-c1cccc(CNS(=O)(=O)c2ccc(F)c(F)c2)c1 [CBK285627] | 98.1844 |
| Cc1c(C(=O)Nc2ccc(S(=O)(=O)N3CCCCCC3)cc2)oc2ccc(Cl)cc12 [CBK267664] | 84.6973 |
| NCCCN(Cc1ccco1)C1CCCC1 [CBK268856] | 82.9268 |
| CS(=O)(=O)c1ccc(-c2ccc(COC3CCN(C(=O)Cc4cccc(C(F)(F)F)c4)CC3)cn2)cc1 [CBK162231T] | 86.0929 |
| CC(C)C(CNCc1cncnc1)c1ccnn1C (stereo not shown) [CBK304190] | 90.5738 |
| Cc1ccc(OCc2nc(C)c(C(=O)N3CCCC(C)C3)s2)cc1 (stereo not shown) [CBK305356] | 64.6325 |
| CCc1c(C(=O)NC(C)c2cccc(Cl)c2)cnc2cc(O)nn12 (stereo not shown) [CBK291243] | 96.7632 |
| O=S(=O)(c1ccc(-c2ccccc2)cc1)N1CCCN(CCCO)CC1 [CBK063043] | 40.4359 |
| Cc1cccc(-c2ccc(CC3(C(N)=O)CCN(C(=O)COc4ccccc4)CC3)cc2)c1 [CBK285797] | 104.72 |
| CC(C)(C)c1ccc(C(=O)N2CCC3(CC2)CC(=O)N(Cc2ccc(S(C)(=O)=O)cc2)C3=O)cc1 [CBK155018] | 96.6006 |
| CC(C)[C@@H](CO)Nc1nc(-c2occc2C=O)cnc1N [CBK063733] | 146.082 |
| COc1nccnc1OC1CCN(CCc2c[nH]c3ccccc23)CC1 [CBK084261] | 90.5692 |
| O=C1CC(c2ccccc2)c2c(n3ncnc3[nH]c2=O)N1 (stereo not shown) [CBK287912] | 103.352 |
| COc1cc2c(cc1OC)C(c1ccc(C(=O)O)cc1)NCC2 (stereo not shown) [CBK286738] | 109.513 |
| CN(C)[C@@H]1CN(Cc2ccccn2)C[C@H]1c1cn(C)c2ccccc12 [CBK284582] | 82.2394 |
| O=C(CCc1ccccc1)NNC(=O)C1CC1c1ccccc1 (stereo not shown) [CBK261292] | 91.9465 |
| Cc1noc(C)c1CC(=O)N1CCC(c2ccccc2)C1 (stereo not shown) [CBK281959] | 120.282 |
| c1ccc(COc2nccnc2-c2ccccc2)cc1 [CBK106686] | 84.7878 |
| Cc1cc(CNS(=O)(=O)N2CCCC2)c2[nH]c(C)c(C)c2c1 [CBK282772] | 109.471 |
| COc1ccc(NC(=O)CSCc2cc(O)[nH]n2)cc1 [CBK268417] | 91.0298 |
| COc1ccc(NC(=O)c2ccc(-c3cnc(Nc4ccc(N5CCOCC5)cc4)c4nccn34)cc2)cc1 [CBK091240] | 157.437 |
| COc1ccc(Sc2nc3ccccc3nc2C(F)(F)F)cc1OC [CBK093779] | 100.794 |
| Cn1c(=O)c2c(nc(SCC(=O)CSc3nc4c(c(=O)n(C)c(=O)n4C)n3C)n2C)n(C)c1=O [CBK267692] | 114.585 |
| O=C(NC1CCCC1)c1ccncc1 [CBK143916] | 67.3422 |
| CC12CCC(C(=O)O)(c3nc4c(ccc5ncccc54)nc31)C2(C)C (stereo not shown) [CBK269470] | 91.3773 |
